Results: PubChem BioAssay AID588579 (National Center for Advancing Translational Sciences (NCATS), 2011)
Where “and” joins values, the source holds several entries; their conditions need not be identical. Equal values may be shown once. Out of some 400,000 compounds screened, about 2,200 (0.55%) were called active. This list was built around the results that the source calls inconclusive (neither active nor inactive); the mix of calls is not that of the screen. The call rests on the fitted dose curve; in most records, active means well fitted inhibition curve with a large enough effect; inconclusive means small, poorly fitted or top-dose-only effect, or another doubt; inactive means no such curve, though single readings can be large or run the other way. Potencies beside an inconclusive call are fits to weak or partial responses and may not hold up.

biological target: DNA polymerase kappa (Homo sapiens) (UniProt Q9UBT6); assay: qHTS for Inhibitors of Polymerase Kappa; settings: purified Pol kappa, fluorescent DNA synthesis assay, 10 min; series mostly up to 107 µM
UniProt Q9UBT6, sequence (Q9UBT6 whole entry, looked up): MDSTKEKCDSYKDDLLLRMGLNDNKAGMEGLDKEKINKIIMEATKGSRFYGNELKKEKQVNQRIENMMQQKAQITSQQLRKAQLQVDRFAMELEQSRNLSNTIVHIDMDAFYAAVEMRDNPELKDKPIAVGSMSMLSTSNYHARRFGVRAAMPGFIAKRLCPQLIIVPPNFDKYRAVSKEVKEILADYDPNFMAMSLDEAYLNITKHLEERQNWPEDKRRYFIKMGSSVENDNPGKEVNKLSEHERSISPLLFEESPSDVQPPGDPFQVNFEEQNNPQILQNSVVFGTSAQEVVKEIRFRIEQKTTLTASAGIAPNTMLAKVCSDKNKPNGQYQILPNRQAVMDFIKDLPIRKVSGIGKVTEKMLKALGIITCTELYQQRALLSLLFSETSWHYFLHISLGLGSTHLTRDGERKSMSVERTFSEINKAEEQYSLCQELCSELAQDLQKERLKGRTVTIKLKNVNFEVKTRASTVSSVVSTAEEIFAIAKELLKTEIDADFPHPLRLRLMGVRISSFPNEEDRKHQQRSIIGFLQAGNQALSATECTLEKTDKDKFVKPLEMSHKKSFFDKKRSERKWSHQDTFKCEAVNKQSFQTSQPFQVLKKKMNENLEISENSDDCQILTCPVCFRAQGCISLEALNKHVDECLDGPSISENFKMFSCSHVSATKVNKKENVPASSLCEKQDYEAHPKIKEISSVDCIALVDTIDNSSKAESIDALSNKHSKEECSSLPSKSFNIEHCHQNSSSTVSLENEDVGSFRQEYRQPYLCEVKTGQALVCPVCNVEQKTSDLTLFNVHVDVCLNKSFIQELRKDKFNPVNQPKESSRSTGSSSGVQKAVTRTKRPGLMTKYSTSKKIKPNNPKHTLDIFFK
Procedure, shortened: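 Activity was followed as the change in fluorescence between reads at 0 and 10 min after starting the reaction with 50 nM substrate. Beforehand, 10 nM polymerase had been preincubated with compound for 15 min at room temperature.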
On the % scale 0 is the no-effect control and ±100 the full control effect; potency means the concentration at half of the fitted maximal effect; tags describe the fitted curve by direction and shape.

Potency, inconclusive:
CCOC(=O)COc1ccc(/C=C(\C#N)c2nc3ccc(C)cc3[nH]2)cc1OC 100 µM [inhibitor, single point]
Cc1cccc(NC(=O)CC2Nc3cccc4cccc(c34)NC2=O)c1 (stereo not drawn) 1.41 µM [inhibitor, full curve, poor fit]
Cc1cc(C)cc(C(=O)OCC(=O)Nc2ncccn2)c1 89.1 µM [inhibitor, single point]
O=C(NC1=NCCS1)c1ccccc1 89.1 µM [inhibitor, single point]
O=C(/C=C\c1ccco1)c1ccc(NC(=O)c2ccco2)cc1 89.1 µM [inhibitor, single point]
Cc1cc(C)n(CC(O)COc2ccc(C(C)(C)C)cc2)n1 (stereo not drawn) 89.1 µM [inhibitor, single point]
COc1ccc(NC(=O)c2cc(-c3ccccc3Cl)on2)cc1OC 15.8 µM [inhibitor, partial curve, poor fit]
CCOC(=O)c1cc2c(=O)n3ccccc3nc2n(Cc2ccco2)c1=NC(=O)c1ccc(Br)cc1 39.8 µM [inhibitor, partial curve]
CCCCNC(=S)N/N=C/c1ccc(C#N)cc1 89.1 µM [inhibitor, partial curve, poor fit]
Nc1c(Br)cc(/C=C/c2ccnc3ccccc23)cc1Br 89.1 µM [inhibitor, single point]
CC(/C=C/c1ccco1)=N\NC(=O)c1cccnc1 79.4 µM [inhibitor, partial curve, poor fit]
C=CCc1ccccc1OCCSc1nc(-c2cccs2)nc2cc(=O)[nH]n12 100 µM [inhibitor, single point]
CCc1ccc([C@@H]2CC=C(C(=O)O)[C@H](c3ccc(Cl)cc3)N2S(=O)(=O)c2ccc(C)cc2)cc1 79.4 µM [inhibitor, single point]
NS(=O)(=O)c1ccc(CCNC(=O)CSc2ccsc2[N+](=O)[O-])cc1 70.8 µM [inhibitor, single point]
COc1ccccc1NC(=O)CCc1nc2sc3c(c2c(=O)[nH]1)CCCC3 89.1 µM [inhibitor, single point]
O=C(O)/C=C/c1ccc(O)c(O)c1 28.2 µM [inhibitor, partial curve] and 33.6 µM [inhibitor, single point]
CC1CCC/C(=N\Nc2ccc(Cl)c(C(=O)O)c2)C1 (stereo not drawn) 28.2 µM [inhibitor, single point]
O=C1OCCN1C(=O)[C@H]1[C@H](c2ccc(F)cc2)C(c2cccc(Cl)c2)=NN1c1ccccc1 44.7 µM [inhibitor, single point]
Cc1cc(C)n(-c2ccc(NC(=O)C3CCN(Cc4cc(C)c(C)o4)CC3)cc2)n1 79.4 µM [inhibitor, partial curve, poor fit]
N#Cc1ccsc1NC(=O)COC(=O)CCS(=O)(=O)c1ccccc1 89.1 µM [inhibitor, single point]
O=C(O)CCc1ccc(-c2cccs2)n1CCC(=O)O 89.1 µM [inhibitor, single point]
Cc1ccc(NC(=O)Cn2cc(S(=O)(=O)Cc3ccc(F)cc3)c3ccccc32)cc1Cl 89.1 µM [inhibitor, single point]
Cc1cccc(CN2CC34CCC(CC3S2(=O)=O)O4)c1 (stereo not drawn) 100 µM [inhibitor, partial curve, poor fit]
O=C(Cn1cnnn1)OCC(=O)c1ccc(Cl)s1 89.1 µM [inhibitor, single point]
COc1ccc(/C=C2\Oc3cc(OCC(=O)N4CCC[C@H]4C(=O)O)ccc3C2=O)c(OC)c1 89.1 µM [inhibitor, partial curve, poor fit]
Cc1cc(/C=N/NC(=O)C(O)(c2ccccc2)c2ccccc2)c(C)n1-c1cccc(C(=O)O)c1 56.2 µM [inhibitor, partial curve, poor fit]
N[C@@H](Cc1cc(I)c(Oc2cc(I)c(O)c(I)c2)c(I)c1)C(=O)O 37.7 µM [inhibitor, single point] and 56.2 µM [inhibitor, partial curve, poor fit]
COC(=O)Cn1c(=NC(=O)c2ccc(S(=O)(=O)N3CCOCC3)cc2)sc2cc(S(N)(=O)=O)ccc21 89.1 µM [inhibitor, single point]
O=C(CSc1nnc(-c2ccco2)o1)c1ccc[nH]1 79.4 µM [inhibitor, partial curve]
C[C@@H]1OC(Oc2ccccc2-c2cc(=O)c3c(O)cc(O)c([C@@H]4O[C@H](CO)[C@@H](O)[C@H](O)[C@H]4O)c3o2)[C@H](O)[C@H](O)[C@H]1O (stereo partly drawn) 29.9 µM [inhibitor, partial curve]
O=C(Oc1coc(CSc2nnc(NC(=O)c3cccs3)s2)cc1=O)c1ccccc1 56.2 µM [inhibitor, partial curve, poor fit]
C/C(=N\Nc1ccc(Cl)c(C(=O)O)c1)c1cccs1 89.1 µM [inhibitor, single point]
Cc1cccc(NC(=O)CCNS(=O)(=O)c2ccc3[nH]c(=O)oc3c2)c1 79.4 µM [inhibitor, partial curve, poor fit]
NC(=O)COC(=O)c1cc(-c2ccco2)nc2ccccc12 89.1 µM [inhibitor, partial curve, poor fit]
Cc1noc(C)c1CCC(=O)N1CCCC(CCC(=O)NCc2ccc(F)c(F)c2)C1 (stereo not drawn) 100 µM [inhibitor, single point]
COc1ccc(NC(=O)CSc2nc(O)cc(=O)n2C)cc1 50.1 µM [inhibitor, partial curve, poor fit]
Oc1ccc(NCc2ccccc2OCc2ccc(Cl)cc2)cc1 89.1 µM [inhibitor, partial curve]
CN(C)c1nc(NNC(=O)c2ccccc2)nc(N(C)C)n1 100 µM [inhibitor, single point]

Potency, active:
O=c1[nH]n2c(=O)c3c([nH]c2c1N=Nc1cccc(Cl)c1)CCC3 89.1 µM
O=c1c(OC2OC(CO)C(O)C(O)C2O)c(-c2ccc(O)c(O)c2)oc2cc(O)cc(O)c12 (stereo not drawn) 17.8 µM
COc1ccc(CCC(=O)O)c(O)c1 70.8 µM
O=c1cc(-c2ccc(O)c(O)c2)oc2cc(OC3OC(CO)C(O)C(O)C3O)cc(O)c12 (stereo not drawn) 0.891 µM
COc1ccc(-c2cc(C(F)(F)F)c3c(n2)sc2c(O)cc(=O)[nH]c23)c(OC)c1 20 µM
COc1cc2c(NC3CCN(C)CC3)nc(N3CCCN(C)CC3)nc2cc1OCCCCN 79.4 µM
CC1=NN(c2ccc(C(=O)O)c(N)c2)C(=O)C1 89.1 µM
CCCOc1ccc(C(=O)N/N=C/c2ccc(-c3ccc(S(=O)(=O)Nc4ncccn4)cc3)o2)cc1 50.1 µM
CC[C@]12c3[nH]c4cc(-c5ccco5)ccc4c3CCN1C(=O)[C@@H](CC(=O)NCCC1=CCCCC1)C[C@@H]2C(=O)N1CCN(C(=O)c2ccco2)CC1 28.2 µM
NCCCC[C@H]1NC(=O)[C@H](CCC(=O)O)NC(=O)c2cc([N+](=O)[O-])cc(I)c2OCC[C@@H](C(N)=O)NC1=O 3.55 µM
CSC1=N/C(=C\c2ccc(Br)o2)C(=O)S1 31.6 µM
CC(=O)C1=C(c2ccccc2)NC(=O)NC1c1ccc(O)c(O)c1 (stereo not drawn) 79.4 µM
O=C(CCCN1C(=O)/C(=C\c2ccco2)SC1=S)Nc1ccc(O)cc1C(=O)O 22.4 µM

Potency, inactive:
CC(C)c1csc2nc3n(c(=O)c12)CCCCC3
Cc1ccc(-c2nc(-c3ccccn3)no2)cc1
COc1ccc(OC)c2sc(N(Cc3cccnc3)C(C)=O)nc12
Cc1ccc(C2(C)NC(=O)N(CC(=O)N3CCN(S(=O)(=O)c4cccc(F)c4)CC3)C2=O)cc1 (stereo not drawn)
CCn1c(SCC(=O)Nc2cc(C)on2)nnc1-c1ccc(OC)cc1
Cc1ccc(C)c(N2CCN(CCCNC(=O)c3ccc4nc(CCc5ccccc5)oc4c3)CC2)c1
O=C(/C=C/c1ccco1)NCc1ccc2c(c1)OCO2
COc1ccccc1CNC(=O)CN1N=C(c2ccccc2)CCC1=O
Cc1c(Br)c(=O)oc2c(Br)c(O)ccc12
Cc1cccc(C(=O)NNc2ncnc3c2cnn3-c2ccc(C)cc2C)c1
CC[C@H](C)[C@H](NC(=O)[C@H](Cc1ccc(O)cc1)NC(=O)[C@@H](NC(=O)[C@@H](N)CCCN=C(N)N)C(C)C)C(=O)N[C@@H](Cc1cnc[nH]1)C(=O)N1CCC[C@H]1C(=O)N[C@@H](Cc1ccccc1)C(=O)O

activity, negative = inhibition, inactive:
C=Cc1c(C)c2cc3nc(cc4[nH]c(cc5nc(cc1[nH]2)C(C)=C5CCC(=O)O)c(CCC(=O)OC)c4C)[C@@]1(C)C3=CC=C(C(=O)OC)[C@H]1C(=O)OC (tested in a mixture with another compound) -0.0475% [at 19.4 µM]
